Experimental data published in publication PMC10229743.
No constants are given. Whether binding was seen depends on the method and setting. Binding seen in cells or lysates may run through a third protein. Some binding calls cover weakened binding; strength is not graded here.

Protein sequences, listed by entry. Tags and fused reporters are not part of them. Lines headed by an entry give the natural chain unless they say otherwise; changes in a name come on top. Chains listed by the source or under a name are the forms on record and can include a tag or linker. Residues count along the entry.
UniProt P19474: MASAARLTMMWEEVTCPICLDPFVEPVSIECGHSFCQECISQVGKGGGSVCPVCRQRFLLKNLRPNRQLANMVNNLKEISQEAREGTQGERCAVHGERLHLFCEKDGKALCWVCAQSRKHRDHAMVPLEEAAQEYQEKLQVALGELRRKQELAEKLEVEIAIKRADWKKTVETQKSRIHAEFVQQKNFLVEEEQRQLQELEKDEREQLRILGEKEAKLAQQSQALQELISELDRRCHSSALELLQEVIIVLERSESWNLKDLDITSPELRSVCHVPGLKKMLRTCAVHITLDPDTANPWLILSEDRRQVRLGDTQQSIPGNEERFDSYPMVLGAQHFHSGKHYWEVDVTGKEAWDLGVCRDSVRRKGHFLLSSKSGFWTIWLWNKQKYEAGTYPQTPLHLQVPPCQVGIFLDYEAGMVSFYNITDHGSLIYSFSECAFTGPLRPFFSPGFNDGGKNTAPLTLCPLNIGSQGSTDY
His-TRIM21 deletion mutant lacking residues 12-55 located in the RING domain (His-RING^Δ) (P19474, form named): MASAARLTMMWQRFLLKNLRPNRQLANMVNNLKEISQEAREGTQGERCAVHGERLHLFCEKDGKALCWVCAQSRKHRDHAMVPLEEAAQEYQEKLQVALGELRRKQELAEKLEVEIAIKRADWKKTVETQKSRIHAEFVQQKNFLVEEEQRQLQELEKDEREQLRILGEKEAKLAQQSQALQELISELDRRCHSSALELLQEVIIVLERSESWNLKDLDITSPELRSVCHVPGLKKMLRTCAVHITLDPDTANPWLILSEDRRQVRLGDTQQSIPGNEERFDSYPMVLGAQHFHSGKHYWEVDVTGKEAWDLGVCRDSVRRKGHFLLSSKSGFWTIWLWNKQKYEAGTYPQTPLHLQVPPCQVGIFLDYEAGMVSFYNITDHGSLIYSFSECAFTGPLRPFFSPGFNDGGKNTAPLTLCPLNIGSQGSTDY
His-TRIM21 deletion mutant lacking residues 286-465 located in the SPRY domain (His-SPRY^Δ) (P19474, form named): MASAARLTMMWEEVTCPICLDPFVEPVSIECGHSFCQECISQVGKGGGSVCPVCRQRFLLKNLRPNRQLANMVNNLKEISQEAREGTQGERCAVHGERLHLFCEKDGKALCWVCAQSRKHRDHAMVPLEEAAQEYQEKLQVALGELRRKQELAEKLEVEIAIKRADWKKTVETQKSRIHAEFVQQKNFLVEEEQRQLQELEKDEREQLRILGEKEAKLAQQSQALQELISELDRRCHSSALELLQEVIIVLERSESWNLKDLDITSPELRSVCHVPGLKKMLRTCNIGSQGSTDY

Tests used:
[1] = target: T1, tripartite motif-containing protein 21 (TRIM21), endogenous in mouse primary hepatocytes (mouse (endogenous in primary hepatocytes)) (UniProt Q62191); experiment: co-IP; endogenous proteins in mouse primary hepatocyte lysate; IP with anti-TRIM21, anti-PEPCK1 or anti-FASN antibody or control IgG, protein A/G agarose, overnight; immunoblot
T1 sequence: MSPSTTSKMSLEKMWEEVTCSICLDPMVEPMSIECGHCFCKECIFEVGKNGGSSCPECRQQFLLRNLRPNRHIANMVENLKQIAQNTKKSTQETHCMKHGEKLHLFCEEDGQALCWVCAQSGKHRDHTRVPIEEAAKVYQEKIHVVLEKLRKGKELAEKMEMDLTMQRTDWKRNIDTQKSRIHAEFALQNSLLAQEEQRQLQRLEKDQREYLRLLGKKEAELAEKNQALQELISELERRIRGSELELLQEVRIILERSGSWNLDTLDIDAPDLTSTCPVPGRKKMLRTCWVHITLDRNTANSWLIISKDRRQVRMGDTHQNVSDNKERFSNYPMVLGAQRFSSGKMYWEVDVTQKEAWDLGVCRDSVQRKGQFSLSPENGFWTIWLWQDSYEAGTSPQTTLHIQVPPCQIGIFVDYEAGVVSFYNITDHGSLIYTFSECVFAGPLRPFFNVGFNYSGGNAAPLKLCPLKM

[2] = target: His-TRIM21 deletion mutant lacking residues 12-55 located in the RING domain (His-RING^Δ) (UniProt P19474); experiment: co-IP; mouse primary hepatocytes transfected with TRIM21 WT, His-RING^Δ or His-SPRY^Δ plasmids for 48 h, MG132 (10 μmol/L) for 4 h before lysis; His-tag immunoprecipitated; blot for FASN, PEPCK1 and His-tag
[3] = target: His-TRIM21 deletion mutant lacking residues 286-465 located in the SPRY domain (His-SPRY^Δ) (UniProt P19474); experiment: as above
[4] = target: TRIM21 WT (wild type), plasmid-expressed (UniProt P19474); experiment: as above

- binding [1]: binds
- binding [2]: no binding
- binding [3]: binds
- binding [4]: binds
B1: phosphoenolpyruvate carboxykinase-1 (PEPCK1), endogenous in mouse primary hepatocytes (protein, UniProt Q9Z2V4 1-622)
chain: MPPQLHNGLDFSAKVIQGSLDSLPQAVRKFVEGNAQLCQPEYIHICDGSEEEYGQLLAHMQEEGVIRKLKKYDNCWLALTDPRDVARIESKTVIITQEQRDTVPIPKTGLSQLGRWMSEEDFEKAFNARFPGCMKGRTMYVIPFSMGPLGSPLAKIGIELTDSPYVVASMRIMTRMGISVLEALGDGEFIKCLHSVGCPLPLKKPLVNNWACNPELTLIAHLPDRREIISFGSGYGGNSLLGKKCFALRIASRLAKEEGWLAEHMLILGITNPEGKKKYLAAAFPSACGKTNLAMMNPSLPGWKVECVGDDIAWMKFDAQGNLRAINPENGFFGVAPGTSVKTNPNAIKTIQKNTIFTNVAETSDGGVYWEGIDEPLAPGVTITSWKNKEWRPQDAEPCAHPNSRFCTPASQCPIIDPAWESPEGVPIEGIIFGGRRPEGVPLVYEALSWQHGVFVGAAMRSEATAAAEHKGKIIMHDPFAMRPFFGYNFGKYLAHWLSMAHRPAAKLPKIFHVNWFRKDKDGKFLWPGFGENSRVLEWMFGRIEGEDSAKLTPIGYIPKENALNLKGLGGVNVEELFGISKEFWEKEVEEIDRYLEDQVNTDLPYEIERELRALKQRISQM
